Results on 26 compounds are retold here after the antibiotic and cytotoxicity screens of Wong et al. (2023).

Some of the results follow.

For one assay, the system named is HSkMC. Put plainly: cytotoxicity call (relative viability < 0.9). The note with it: 10 µM.
The test system of the next assay is HepG2. Put plainly: cytotoxicity call (relative viability < 0.9). The note with it: 10 µM.
The test system of the next assay is S. aureus RN4220. Put plainly: growth inhibition call (relative growth <= 0.2). The note with it: 50 µM.

Regarding `CC(C)(Oc1ccc(CCNC(=O)c2ccc(Cl)cc2)cc1)C(=O)O`, the cytotoxicity call in the assay with HSkMC and in the assay on HepG2 was “inactive” in each case. Further, in the assay on S. aureus RN4220, the growth inhibition call was “inactive”.

On to `N[C@@H](CCO)c1cccc(Cl)c1`, for which the cytotoxicity call with HSkMC and in the assay on HepG2 was “inactive” each time. In the assay on S. aureus RN4220, the growth inhibition call was “inactive”.

Turning to `CC(C)(C)[S@@](=O)N1Cc2cc(C(=O)N3CCCCC3)nc(-c3cccc(-c4cccc(C#N)c4)c3)c2[C@H]1CCO`, the cytotoxicity call with HSkMC and with HepG2 was “inactive” in each case. Further, the growth inhibition call in the assay on S. aureus RN4220 was “inactive”.

For `Cn1cnc(S(=O)(=O)N2C[C@@H](O)COC[C@@H]3O[C@H](CC(=O)NC4Cc5ccccc5C4)CC[C@H]32)c1`, the cytotoxicity call in the assay on HSkMC and with HepG2 was “inactive” in each case. For the same compound, in the assay with S. aureus RN4220, the growth inhibition call was “inactive”.

Consider `C[C@H]1CN([C@@H](C)CO)C(=O)c2cc(NC(=O)CCCN(C)C)ccc2O[C@@H]1CN(C)S(=O)(=O)c1ccccc1`, for which the cytotoxicity call with HSkMC and in the assay with HepG2 was “inactive” in each case. The growth inhibition call in the assay with S. aureus RN4220 is “inactive”.

Turning to `Cc1cc(C)n(C)c(=O)c1C(=O)O`, the cytotoxicity call with HSkMC and in the assay on HepG2 was “inactive” in each case. In the assay on S. aureus RN4220, the growth inhibition call is “inactive”.

Take `C[C@H]1CN([C@@H](C)CO)C(=O)Cc2cc(NS(=O)(=O)c3ccc(Cl)cc3)ccc2O[C@H]1CN(C)Cc1ccc(Oc2ccccc2)cc1`: the cytotoxicity call in the assay with HSkMC and in the assay with HepG2 was “active” throughout. The growth inhibition call in the assay with S. aureus RN4220 was “inactive”.

On to `COc1ccc(NC(=O)N(C)C[C@@H]2OCCCC[C@H](C)Oc3ccc(NC(=O)NC(C)C)cc3C(=O)N([C@H](C)CO)C[C@@H]2C)cc1`, for which the cytotoxicity call in the assay on HSkMC and with HepG2 was “inactive” each time. The growth inhibition call in the assay with S. aureus RN4220 was “inactive”.

For `O=C(C[C@H]1CC[C@H]2[C@@H](COC[C@@H](O)CN2C(=O)c2cnccn2)O1)N1CCN(c2ccccc2)CC1`, the cytotoxicity call in the assay on HSkMC and with HepG2 was “inactive” throughout. The growth inhibition call with S. aureus RN4220 is “inactive”.

With `C[C@@H]1CCCCO[C@@H](CN(C)C)[C@H](C)CN([C@H](C)CO)C(=O)c2cc(NC(=O)CCCCCC(=O)Nc3ccccc3N)ccc2O1`, the cytotoxicity call with HSkMC and in the assay on HepG2 was “inactive” throughout. Also, the growth inhibition call with S. aureus RN4220 was “inactive”.

As to `C[C@H](CO)N1C[C@H](C)[C@@H](CN(C)C(=O)c2ccccc2)OCCCC[C@H](C)Oc2ccc(NC(=O)Nc3ccc(C(F)(F)F)cc3)cc2C1=O`, the cytotoxicity call in the assay with HSkMC and with HepG2 was “inactive” in each case. In addition, in the assay on S. aureus RN4220, the growth inhibition call is “inactive”.

`O=C1CSCC(=O)N1c1cccnc1`: the cytotoxicity call in the assay with HSkMC and in the assay on HepG2 was “inactive” each time. The growth inhibition call in the assay on S. aureus RN4220 was “inactive”.

As to `C[C@H]1CN([C@@H](C)CO)C(=O)c2cccc(NC(=O)Nc3ccc(C(F)(F)F)cc3)c2O[C@@H]1CN(C)C(=O)Nc1cccc2ccccc12`, the cytotoxicity call with HSkMC and in the assay on HepG2 was “active” each time. The growth inhibition call with S. aureus RN4220 is “inactive”.

Turning to `C[C@@H]1CN([C@@H](C)CO)C(=O)c2cc(NC(=O)C3CCCCC3)ccc2O[C@@H](C)CCCCO[C@@H]1CN(C)Cc1ccc(C(F)(F)F)cc1`, the cytotoxicity call with HSkMC and in the assay with HepG2 was “inactive” each time. Besides, the growth inhibition call in the assay with S. aureus RN4220 is “inactive”.

Turning to `O=C(C[C@@H]1C[C@@H]2c3cc(NS(=O)(=O)c4ccc(F)cc4)ccc3O[C@@H]2[C@@H](CO)O1)NCCN1CCCCC1`, the cytotoxicity call with HSkMC and in the assay on HepG2 was “inactive” throughout. The growth inhibition call in the assay with S. aureus RN4220 is “inactive”.

With `Cc1noc(C)c1NC(=O)N(C)C[C@@H]1Oc2ccc(NC(=O)Cn3cnnn3)cc2CC(=O)N([C@@H](C)CO)C[C@H]1C`, the cytotoxicity call in the assay with HSkMC and with HepG2 was “inactive” in each case. The growth inhibition call in the assay with S. aureus RN4220 was “inactive”.

For `C[C@H]1CN([C@@H](C)CO)C(=O)c2cc(-c3ccc(C(=O)N(C)C)cc3)cnc2O[C@H]1CN(C)C(=O)c1cccnc1`, the cytotoxicity call in the assay on HSkMC and with HepG2 was “inactive” throughout. Further, the growth inhibition call with S. aureus RN4220 was “inactive”.

In the case of `CCc1c(c/2[nH]c1/C=C/1\N=C(/C(=C/3\N=C(/C=C/4\N/C(=C2)C(=C4C)C=C)[C@@H](C)[C@@H]3CCC(=O)O)CC(=O)N[C@@H](CC(=O)O)C(=O)O)C(=C1C)C(=O)O)C`, the cytotoxicity call in the assay on HSkMC and in the assay on HepG2 was “inactive” throughout. The growth inhibition call in the assay on S. aureus RN4220 was “inactive”.

Take `O=C(C1=C[C@@H](c2ccc(C(F)(F)F)cc2)C[C@@H](OCc2ccc(CO)cc2)O1)N1CCN(Cc2ccc3c(c2)OCO3)CC1`: the cytotoxicity call with HSkMC and in the assay on HepG2 was “inactive” in each case. Also, the growth inhibition call in the assay with S. aureus RN4220 was “inactive”.

Regarding `COCC#Cc1ccc([C@H]2[C@H]3CN(C(=O)CN4CCOCC4)CC(=O)N3[C@H]2CO)cc1`, the cytotoxicity call with HSkMC and in the assay on HepG2 was “inactive” throughout. For the same compound, in the assay on S. aureus RN4220, the growth inhibition call was “inactive”.

Take `CO[C@H](CN(C)C(=O)Nc1ccc(C(F)(F)F)cc1)[C@H](C)CN(Cc1ccccc1Cl)[C@H](C)CO`: the cytotoxicity call in the assay on HSkMC and in the assay on HepG2 was “inactive” each time. For the same compound, the growth inhibition call in the assay with S. aureus RN4220 is “inactive”.

`C[C@@H]1CN([C@@H](C)CO)C(=O)c2cccc(NC(=O)Nc3ccc4c(c3)OCO4)c2O[C@@H]1CN(C)S(=O)(=O)c1cn(C)cn1`: the cytotoxicity call in the assay on HSkMC (human skeletal muscle cells) and with HepG2 was “inactive” throughout. Further, in the assay on S. aureus RN4220, the growth inhibition call was “inactive”.

Regarding `Cc1noc(C)c1NC(=O)N(C)C[C@@H]1OCCCC[C@H](C)Oc2ccc(NC(=O)C3CCCCC3)cc2C(=O)N([C@@H](C)CO)C[C@H]1C`, the cytotoxicity call in the assay with HSkMC and in the assay on HepG2 was “inactive” in each case. The growth inhibition call in the assay with S. aureus RN4220 is “inactive”.

On to `C[C@@H]1CN([C@H](C)CO)C(=O)c2cccc(NC(=O)c3ccncc3)c2O[C@H]1CN(C)Cc1ccc(-c2ccccc2)cc1`, for which the cytotoxicity call with HSkMC and with HepG2 was “inactive” throughout. In the assay with S. aureus RN4220, the growth inhibition call was “inactive”.

For the compound `CCCCCNCC(N)=O`, the cytotoxicity call in the assay with HSkMC and with HepG2 was “inactive” in each case. For the same compound, the growth inhibition call with S. aureus RN4220 was “inactive”.

`COc1ccc(NC(=O)N(C)C[C@H]2OCCCC[C@@H](C)Oc3ccc(NC(=O)c4ccncc4)cc3C(=O)N([C@@H](C)CO)C[C@@H]2C)cc1`: the cytotoxicity call with HSkMC and in the assay on HepG2 was “inactive” each time. The growth inhibition call with S. aureus RN4220 is “inactive”.
